Out of some 39,000 compounds screened, about 220 (0.56%) showed activity. This is one part of the list.
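Also: static incubation at 37 °C against the wild-type strain, values averaged over two biological replicates.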

In this assay the test system is Escherichia coli K-12 BW25113. The experiment in a line: relative growth (OD600 normalised to plate interquartile mean) (fraction); higher = less growth inhibition, active = 0.2 or less. To be noted: 50 µM; LB; incubation time: overnight (16-24 h).
Regarding `C[C@@H]1CN([C@H](C)CO)C(=O)c2cccc(NC(=O)CCCCCC(=O)Nc3ccccc3N)c2O[C@H]1CN(C)Cc1ccccc1`, the relative growth is inactive: 0.986.
To `NC[C@H]1O[C@H](O[C@@H]2[C@H](O)[C@@H](O[C@H]3O[C@H](CO)[C@@H](O)[C@H](N)[C@H]3O)[C@H](N)C[C@@H]2N)[C@H](O)[C@@H](O)[C@@H]1O` belongs inactive: 0.983.
In the case of `C[C@@H]1CN([C@@H](C)CO)C(=O)c2cccc(NC(=O)c3ccc(-c4nccs4)cc3)c2O[C@@H]1CN(C)CC1CCCCC1` it was inactive: 0.982; in that of `OCC(O)C(O)C(OC1OC(CO)C(O)C(O)C1O)C(O)CO` (configuration not stated), inactive: 0.915; in that of `CC(C)NC(=O)[C@@H]1c2ccccc2C(=O)N(Cc2cc(F)cc(C(F)(F)F)c2)[C@H]1c1ccc(CO)cc1`, inactive: 0.867.
As for `C[C@H]1CN([C@@H](C)CO)C(=O)c2cccc(NC(=O)Nc3ccc(F)cc3)c2O[C@@H]1CN(C)C(=O)Nc1ccc(C(F)(F)F)cc1`, the relative growth is inactive: 0.895.
In the case of `Cc1noc(C)c1S(=O)(=O)N(C)C[C@@H]1Oc2c(NS(=O)(=O)c3cn(C)cn3)cccc2C(=O)N([C@@H](C)CO)C[C@@H]1C` it was inactive: 1.02; in that of `Cn1cnc(CCNC(=O)C[C@@H]2CC[C@H]3[C@@H](COC[C@H](O)CN3C(=O)Nc3ccc(C(F)(F)F)cc3)O2)c1`, inactive: 0.963.
On to `Cc1ccc(S(=O)(=O)N(C)C[C@H]2Oc3ccc(NS(=O)(=O)c4c(C)noc4C)cc3CC(=O)N([C@H](C)CO)C[C@@H]2C)cc1`, for which the relative growth was inactive: 0.976.
To `Nc1nc2c(s1)CNCC2` belongs inactive: 1.01; to `COc1ccc(NC(=O)Nc2ccc3c(c2)C(=O)N([C@@H](C)CO)C[C@@H](C)[C@H](CN(C)S(=O)(=O)c2cccs2)OCCCC[C@H](C)O3)cc1`, inactive: 1.02; to `CCS(=O)(=O)N1CC[C@]2(CC1)CN([C@@H](CO)c1c2c2ccc(cc2n1C)OC)C(=O)c1ccc(cc1)F`, inactive: 0.994.
Take `COc1ccc(NC(=O)Nc2ccc3c(c2)C(=O)N([C@H](C)CO)C[C@H](C)[C@@H](CN(C)C(=O)NC(C)C)OCCCC[C@@H](C)O3)cc1`: the relative growth is inactive: 1.02.
To `C[C@@H]1CN([C@@H](C)CO)S(=O)(=O)c2ccc(C#C[C@@H](C)O)cc2O[C@H]1CN(C)C(=O)Cc1ccccn1` belongs inactive: 1.01; to `C[C@H](CO)N1C[C@H](C)[C@@H](CN(C)C(=O)CN2CCOCC2)Oc2cc(C#Cc3cccc(F)c3)ccc2S1(=O)=O`, inactive: 1.02.
For `NCC[C@H]1CC[C@@H](NC(=O)Cc2ccncc2)[C@H](CO)O1`, the relative growth is inactive: 0.997.
To `C[C@H](CO)N1C[C@H](C)[C@H](CN(C)Cc2ccc(Oc3ccccc3)cc2)Oc2ccc(NC(=O)CCC(F)(F)F)cc2C1=O` belongs inactive: 1; to `CO[C@H]1CN(C)C(=O)c2ccc(NS(C)(=O)=O)cc2OC[C@@H](C)N(C(=O)CN(C)C)C[C@@H]1C`, inactive: 0.999; to `CO[C@@H](CN(C)C(=O)c1ccccc1F)[C@@H](C)CN([C@@H](C)CO)S(=O)(=O)c1ccc(Cl)cc1`, inactive: 1.
To `C[C@@H]1CCCCO[C@@H](CN(C)C(=O)Nc2ccc3c(c2)OCO3)[C@@H](C)CN([C@@H](C)CO)C(=O)c2cc(NC(=O)CCC(F)(F)F)ccc2O1` belongs inactive: 1.01; to `C[C@H](N)[C@H](O)c1cccc(O)c1`, inactive: 0.99; to `COCCCN1C(=O)[C@@]2(Cc3ccccc31)c1ccccc1C(=O)N(Cc1ccccc1C(F)(F)F)[C@H]2c1ccc(CO)cc1`, inactive: 0.986.
To `Cc1noc(C)c1NC(=O)N(C)C[C@H]1Oc2ccc(NC(=O)NC(C)C)cc2C(=O)N([C@H](C)CO)C[C@H]1C` belongs inactive: 0.994.
As to `Cc1cc(C(=O)N2CCCC[C@@H]2CCOc2cccc(CN(C)Cc3cccc4cccnc34)c2)c(=O)[nH]c1C`, the relative growth was inactive: 0.987.
In the case of `C[C@H](CO)N1C[C@H](C)[C@H](CN(C)Cc2ccncc2)OCCCC[C@H](C)Oc2ccc(NS(C)(=O)=O)cc2C1=O` it was inactive: 1.01.
As to `COc1ccc(NC(=O)N(C)C[C@@H]2Oc3ccc(NC(=O)CCCN(C)C)cc3C(=O)N([C@H](C)CO)C[C@@H]2C)cc1`, the relative growth was inactive: 0.999.
To `CN(C)Cc1cn(CC[C@@H]2CC[C@H](NS(=O)(=O)c3ccccc3)[C@@H](CO)O2)nn1` belongs inactive: 1.01; to `C[C@@H]1CN([C@@H](C)CO)C(=O)c2cc(NC(=O)Nc3ccc(C(F)(F)F)cc3)ccc2O[C@@H](C)CCCCO[C@H]1CN(C)S(=O)(=O)c1cccs1`, inactive: 1.
Consider `C[C@@H]1CN([C@@H](C)CO)C(=O)c2cccc(NS(=O)(=O)c3ccccc3)c2O[C@H]1CN(C)CC1CC1`, for which the relative growth is inactive: 0.98.
Turning to `C[C@H]1CCCCO[C@@H](CN(C)Cc2ccc(C(=O)O)cc2)[C@@H](C)CN([C@@H](C)CO)C(=O)c2cc(NC(=O)CCC(F)(F)F)ccc2O1`, the relative growth is inactive: 0.962.
To `COc1ccc(CN(C)C[C@H]2OCCCC[C@@H](C)Oc3ccc(NC(=O)CCC(F)(F)F)cc3C(=O)N([C@H](C)CO)C[C@H]2C)cc1` belongs inactive: 0.953.
Consider `COc1ccc(CN(C)C[C@@H]2Oc3c(NS(C)(=O)=O)cccc3C(=O)N([C@@H](C)CO)C[C@@H]2C)cc1`, for which the relative growth is inactive: 0.999.
To `C[C@H](CO)N1C[C@H](C)[C@H](CN(C)S(=O)(=O)c2cn(C)cn2)Oc2ncc(C#CCN(C)C)cc2C1=O` belongs inactive: 0.984; to `C[C@H]1CN([C@@H](C)CO)C(=O)Cc2cc(NC(=O)CCCCCC(=O)Nc3ccccc3N)ccc2O[C@H]1CN(C)C(=O)Nc1ccccc1`, inactive: 0.974; to `C[C@@H]1CCCCO[C@H](CN(C)S(=O)(=O)c2cccs2)[C@H](C)CN([C@@H](C)CO)C(=O)c2cc(NS(=O)(=O)c3ccc(Cl)cc3)ccc2O1`, inactive: 1.05.
For the compound `COc1cc(OC)c(CN(CC#CCOC(=O)NCCCCCC(=O)NO)S(=O)(=O)c2ccccc2[N+](=O)[O-])c(OC)c1`, the relative growth was inactive: 1.
To `Cc1noc(C)c1NC(=O)Nc1ccc2c(c1)CC(=O)N([C@@H](C)CO)C[C@H](C)[C@@H](CN(C)S(=O)(=O)c1cccs1)O2` belongs inactive: 0.984; to `O=C(NCC[C@@H]1CC[C@H](NS(=O)(=O)c2cccc(F)c2)[C@H](CO)O1)C1CC1`, inactive: 0.996.
Regarding `CN1C(=O)c2cc(NC(=O)c3cccs3)ccc2OC[C@H]2O[C@H](CC(=O)NCC(F)(F)F)CC[C@@H]21`, the relative growth was inactive: 1.01.
For `Cc1ccc(S(=O)(=O)Nc2ccc3c(c2)C(=O)N([C@H](C)CO)C[C@H](C)[C@H](CN(C)Cc2ccc(C(=O)O)cc2)OCCCC[C@H](C)O3)cc1`, the relative growth was inactive: 0.993.
In the case of `C[C@@H]1CCCCO[C@@H](CN(C)C(=O)Nc2ccccc2)[C@H](C)CN([C@H](C)CO)C(=O)c2cc(NC(=O)Nc3ccc(C(F)(F)F)cc3)ccc2O1` it was inactive: 1; in that of `CN1C(=O)c2cc(NS(=O)(=O)c3ccc(F)cc3)ccc2OC[C@H]2O[C@H](CC(=O)NCC(F)(F)F)CC[C@H]21`, inactive: 1.01; in that of `Cc1noc(C)c1S(=O)(=O)Nc1ccc2c(c1)C(=O)N([C@H](C)CO)C[C@@H](C)[C@@H](CN(C)C(=O)Nc1ccc(C(F)(F)F)cc1)OCCCC[C@@H](C)O2`, inactive: 1.01.
Take `COc1ccccc1C(=O)Nc1ccc2c(c1)C(=O)N(C)[C@H]1CC[C@H](CC(=O)NCc3ccc(Cl)c(Cl)c3)O[C@H]1CO2`: the relative growth is inactive: 1.04.
In the case of `Cc1ccc(S(=O)(=O)Nc2ccc3c(c2)C(=O)N([C@H](C)CO)C[C@@H](C)[C@H](CN(C)C(=O)Nc2ccc(C(F)(F)F)cc2)OCCCC[C@@H](C)O3)cc1` it was inactive: 1.02; in that of `COc1ccc(NC(=O)Nc2ccc3c(c2)C(=O)N([C@@H](C)CO)C[C@H](C)[C@@H](CN(C)S(=O)(=O)c2ccc(Cl)cc2)OCCCC[C@H](C)O3)cc1`, inactive: 1.06; in that of `C[C@H](CO)N1C[C@H](C)[C@@H](CN(C)S(=O)(=O)c2cn(C)cn2)Oc2c(NC(=O)Nc3ccc(F)cc3)cccc2C1=O`, inactive: 0.99.
On to `CC(C)CCCC(C)C1CCC2C3CC(=O)C4CC(O)CCC4(C)C3CCC12C` (stereo not drawn) [5alpha-CHOLESTAN-3beta-OL-6-ONE], for which the relative growth was inactive: 0.844.
In the case of `C[C@@H]1CN([C@H](C)CO)C(=O)c2c(c3ccccc3n2C)-c2ccccc2CO[C@H]1CN(C)Cc1ccc(C(F)(F)F)cc1` it was inactive: 1.13.
To `C[C@H](CO)N1C[C@H](C)[C@@H](CN(C)S(=O)(=O)c2ccc(F)cc2)OCCCC[C@H](C)Oc2ccc(NC(=O)c3ccccc3)cc2C1=O` belongs inactive: 1.03.
To `C[C@@H]1CCCCO[C@@H](CN(C)C(=O)CCC(F)(F)F)[C@H](C)CN([C@H](C)CO)C(=O)c2cc(NC(=O)C3CCCCC3)ccc2O1` belongs inactive: 1; to `CO[C@@H]1CN(C)C(=O)c2cc(NS(=O)(=O)c3cn(C)cn3)ccc2OC[C@H](C)N(CCC(F)(F)F)C[C@H]1C`, inactive: 1.01.
Regarding `C[C@@]12CCC[C@](C)(C(=O)O[C@@H]3O[C@H](CO)[C@@H](O)[C@H](O)[C@H]3O)[C@@H]1CC[C@]13C[C@H](CC[C@@H]12)[C@](O)(CO)C3`, the relative growth was inactive: 1.01.
In the case of `O=C(C[C@H]1C=C[C@@H](NC(=O)c2cccnc2)[C@H](CO)O1)NCc1ccncn1` it was inactive: 0.979; in that of `COc1ccc(CN2C[C@H](C)[C@@H](OC)CN(C)C(=O)c3ccc(NC(=O)c4nc5ccccc5s4)cc3OC[C@H]2C)cc1`, inactive: 1.01; in that of `C[C@H](CO)N1C[C@H](C)[C@@H](CN(C)Cc2ccc(F)cc2)Oc2cc(C#CC(C)(C)O)ccc2S1(=O)=O`, inactive: 1.01.
To `CC(C)NC(=O)N(C)C[C@H]1Oc2c(NS(=O)(=O)c3cn(C)cn3)cccc2C(=O)N([C@@H](C)CO)C[C@H]1C` belongs inactive: 0.99.
